# In the supplement of paper PMC12217912:
# The list shows a part of the results. The full chains were built here from the parent and the listed change. Values near 0.05 are background.
# B1: TEV protease; numbered along this chain (parent)
# chain: MGESLFKGPRDYNPISSSICHLTNESDGHTTSLYGIGFGPFIITNKHLFRRNNGTLVVQSLHGVFKVKDTTTLQQHLVDGRDMIIIRMPKDFPPFPQKLKFREPQREERICLVTTNFQTKSMSSMVSDTSCTFPSGDGIFWKHWIQTKDGQCGSPLVSTRDGFIVGIHSASNFTNTNNYFTSVPKNFMELLTNQEAQQWVSGWRLNADSVLWGGHKVFMVKPEEPFQPVKEATQL
# Variants of: B1
# Test: raw area under fraction-flipped curve 0-4 h after induction (AUC4h, not background-subtracted), DNA-recorder readout of cleavage of the substrate (dimensionless); higher = more cleavage of the substrate by the protease variant
# Conditions: temperature: 34 °C; time window: 0-4 h after rhamnose induction
# 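Further: Bxb1 expression induced with 0.2% (w/v) L-rhamnose at OD600 near 0.5, cultures sampled hourly, flipped fraction per protease–substrate barcode pair counted by paired-end Illumina sequencing.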
Variant,area with substrate ENLDFQS,area with substrate ENLEFQS,area with substrate ENLFFQS,area with substrate ENLHFQS,area with substrate ENLKFQS,area with substrate ENLLFQS,area with substrate ENLNFQS,area with substrate ENLPFQS,area with substrate ENLQFQS,area with substrate ENLRFQS,area with substrate ENLSFQS,area with substrate ENLTFQS,area with substrate ENLVFQS,area with substrate ENLIFQS,area with substrate ENLMFQS,area with substrate ENLWFQS,area with substrate ENLGFQS
MGESLFKGPRDYNPISSSICHLTNESDGHTTSLYGIGFGPFIITNKHLFRRNNGTLVVQSLHGVFKVKDTTTLQQHLVDGRDMIIIRMPKDFPPFPQKLKFREPQREERICLVTTNFQTKSMSSMVSDTSCTFPSGDGIFWKHWIQTKDGQCGSPLVSTRDGFIVGIHSASNFTNTNNYFTSVPKNFMELLTNQEAQQWVSGWRLNADSVLWGGHKVFMVKPEEPFQFVKEATQL [P228F],0.0538,0.0642,0.0769,0.066,0.0836,0.0705,0.0688,0.0575,0.0695,0.0687,0.0591,,,,,,
MGESLFKGPRDYNPISSSICHLTNESDGHTTSLYGIGFGPFIITNKHLFRRNNGTLVVQSLHGVFKVKDTTTLQQHLVDGRDMIIIRMPKDFPPFPQKLKFREPQREERICLVTTNFQTKSMSSMVSDTSCTFPSGDGIFWKHWIQTKDGQCGSPLVSTRDGFIVGIHSASNFTNTNNYFTSVPKNFMELLTNQYAQQWVSGWRLNADSVLWGGHKVFMVKPEEPFQPVKEATQL [E195Y],0.0712,,0.078,,0.0832,,,,,,,0.0695,0.0772,,,,
MGESLFKGPRDYNPISSSICHLTNESDGHTTSLYGIGFGPFIITNKHLFRRNNGTLVVQSLHGVFKVKDTTTLQQHLVDGRDMIIIRMPKDFPPFPQKLKFREPQREERICLVTTNFQTKSMSSMVSDTSCTFPSGDGIFWKHWIQTKDGQCGSPLVSTRDGFIVGIHSASNFTNTNNYFTSVPKNFMELLTNQEAQQWVSGWRLNAMSVLWGGHKVFMVKPEEPFQPVKEATQL [D208M],0.0644,0.0741,0.0763,0.0619,0.0606,0.057,0.0617,0.0564,0.0447,0.0374,0.0397,,,0.0598,0.0789,0.0687,
MGESLFKGPRDYNPISSSICHLTNESDGHTTSLYGIGFGPFIITNKHLFRRNNGTLVVQSLHGVFKVKDTTTLQQHLVDGRDMIIIRMPKDFPPFPQKLKFREPQREERICLVTTNFQTKSMSSMVSDTSCTFPSGDGIFWKHWIQTKDGQCGSPLVSTRDGFIVGIHSASNFTNTNNYFTSVPKNFMELLTNQEAQQWFSGWRLNADSVLWGGHKVFMVKPEEPFQPVKEATQL [V200F],0.0574,,0.0997,0.048,0.0731,0.0638,0.054,0.0627,,,0.0503,,0.0779,,0.0591,,0.0423
MGESLFKGPRDYNPISSSICHLTNESDGHTTSLYGIGFGPFIITNKHLFRRNNGTLVVQSLHGVFKVKDTTTLQQHLVDGRDMIIIRMPKDFPPFPQKLKFREPQREERICLVTTNFQTKSMSSMVSDTSCTFPSGDGIFWKHWIQTKDGQCGSPLVSTRDGFIVGIHSASNFTNTNNYFTSVPKNFMELLTNQEAQQWYSGWRLNADSVLWGGHKVFMVKPEEPFQPVKEATQL [V200Y],0.0861,0.0709,0.0609,0.0757,0.0621,0.0652,0.0698,,,0.0609,0.0598,,0.0692,,0.0601,,0.0921
MGESLFKGPRDYNPISSSICHLTNESDGHTTSLYGIGFGPFIITNKHLFRRNNGTLVVQSLHGVFKVKDTTTLQQHLVDGRDMIIIRMPKDFPPFPQKLKFREPQREERICLVTTNFQTKSMSSMVSDTSCTFPSGDGIFWKHWIQTKDGQCGSPLVSTRDGFIVGIHSASNFTNTNNYFTSVPKNFMELLTNQEAQQWVSGWRLNADSVLWGGHKVFMVKPEDPFQPVKEATQL [E224D],0.0736,0.0685,0.108,0.0698,0.0681,0.074,0.0616,0.0569,,,0.0621,,0.0987,,0.0725,0.0711,0.0759
MGESLFKGPRDYNPISSSICHLTNESDGHTTSLYGIGFGPFIITNKHLFRRNNGTLVVQSLHGVFKVKDTTTLQQHLVDGRDMIIIRMPKDFPPFPQKLKFREPQREERICLVTTNFQTKSMSSMVSDTSCTFPSGDGIFWKHWIQTKDGQCGSPLVSTRDGFIVGIHSASNFTNTNNYFTSVPKNFMKLLTNQEAQQWVSGWRLNADSVLWGGHKVFMVKPEEPFQPVKEATQL [E189K],0.0576,0.0787,0.0929,0.0704,0.0602,0.0464,,,0.101,,,,,0.0723,,,
MGESLFKGPRDYNPISSSICHLTNESDGHTTSLYGIGFGPFIITNKHLFRRNNGTLVVQSLHGVFKVKDTTTLQQHLVDGRDMIIIRMPKDFPPFPQKLKFREPQREERICLVTTNFQTKSMSSMVSDTSCTFPSGDGIFWKHWIQTKDGQCGSPLVSTRDGFIVGIHSASNFTNTNNYFTSVPKNFMELLTNQEAQQWVSGWRLNADSVLWGGHKVFMVKPEEPFQPVKEYTQL [A232Y],0.0605,,0.0933,0.0616,0.0525,,0.0559,0.0512,,0.0524,0.0443,,0.0696,0.0928,,0.071,
MGESLFKGPRDYNPISSSICHLTNESDGHTTSLYGIGFGPFIITNKHLFRRNNGTLVVQSLHGVFKVKDTTTLQQHLVDGRDMIIIRMPKDFPPFPQKLKFREPQREERICLVTTNFQTKSMSSMVSDTSCTFPSGDGIFWKHWIQTKDGQCGSPLVSTRDGFIVGIHSASNFTNTNNYFTSVPKNFMELLTNQEAQQWVSGWRLNADSVLWGGAKVFMVKPEEPFQPVKEATQL [H215A],0.0672,0.0605,0.061,,0.0805,0.0592,0.0742,0.062,0.0658,,,,,,,,
MGESLFKGPRDYNPISSSICHLTNESDGHTTSLYGIGFGPFIITNKHLFRRNNGTLVVQSLHGVFKVKDTTTLQQHLVDGRDMIIIRMPKDFPPFPQKLKFREPQREERICLVTTNFQTKSMSSMVSDTSCTFPSGDGIFWKHWIQTKDGQCGSPLVSTRDGFIVGIHSASNFTNTNNYFTSVPKNFMELLTNQEAQQWVSGWRLNADSVLWGGHTVFMVKPEEPFQPVKEATQL [K216T],0.0762,0.0748,0.0691,0.0659,0.0717,,0.076,0.0625,,0.0717,0.0759,,0.0745,0.0803,,0.0896,
MGESLFKGPRDYNPISSSICHLTNESDGHTTSLYGIGFGPFIITNKHLFRRNNGTLVVQSLHGVFKVKDTTTLQQHLVDGRDMIIIRMPKDFPPFPQKLKFREPQREERICLVTTNFQTKSMSSMVSDTSCTFPSGDGIFWKHWIQTKDGQCGSPLVSTRDGFIVGIHSASNFTNTNNYFTSVPKNFMELLTNQEAQQWVSGWRLNADSVLWGGHCVFMVKPEEPFQPVKEATQL [K216C],0.0529,,0.0732,,,,0.0726,,0.074,,,,,,,,
MGESLFKGPRDYNPISSSICHLTNESDGHTTSLYGIGFGPFIITNKHLFRRNNGTLVVQSLHGVFKVKDTTTLQQHLVDGRDMIIIRMPKDFPPFPQKLKFREPQREERICLVTTNFQTKSMSSMVSDTSCTFPSGDGIFWKHWIQTKDGQCGSPLVSTRDGFIVGIHSASNFTNTNNYFTSVPKNFMELLTNQEAYQWVSGWRLNADSVLWGGHKVFMVKPEEPFQPVKEATQL [Q197Y],0.0696,,,,0.0692,,0.073,0.0757,,,,,,0.0741,,,
MGESLFKGPRDYNPISSSICHLTNESDGHTTSLYGIGFGPFIITNKHLFRRNNGTLVVQSLHGVFKVKDTTTLQQHLVDGRDMIIIRMPKDFPPFPQKLKFREPQREERICLVTTNFQTKSMSSMVSDTSCTFPSGDGIFWKHWIQTKDGQCGSPLVSTRDGFIVGIHSASNFTNTNNYFTSVPKNFMELLSNQEAQQWVSGWRLNADSVLWGGHKVFMVKPEEPFQPVKEATQL [T192S],0.048,0.0535,0.0834,0.023,0.0693,0.0991,0.0656,0.0971,0.0629,,,,0.0683,,,0.0866,
MGESLFKGPRDYNPISSSICHLTNESDGHTTSLYGIGFGPFIITNKHLFRRNNGTLVVQSLHGVFKVKDTTTLQQHLVDGRDMIIIRMPKDFPPFPQKLKFREPQREERICLVTTNFQTKSMSSMVSDTSCTFPSGDGIFWKHWIQTKDGQCGSPLVSTRDGFIVGIHSASNFTNTNNYFTSVPKAFMELLTNQEAQQWVSGWRLNADSVLWGGHKVFMVKPEEPFQPVKEATQL [N186A],0.0704,0.059,0.0921,0.0568,,,,,,,,,,,,,
MGESLFKGPRDYNPISSSICHLTNESDGHTTSLYGIGFGPFIITNKHLFRRNNGTLVVQSLHGVFKVKDTTTLQQHLVDGRDMIIIRMPKDFPPFPQKLKFREPQREERICLVTTNFQTKSMSSMVSDTSCTFPSGDGIFWKHWIQTKDGQCGSPLVSTRDGFIVGIHSASNFTNTNNYFTSVPKYFMELLTNQEAQQWVSGWRLNADSVLWGGHKVFMVKPEEPFQPVKEATQL [N186Y],0.0642,,0.0871,0.0604,0.0854,0.0702,0.0787,,,0.0633,,,,,,,
MGESLFKGPRDYNPISSSICHLTNESDGHTTSLYGIGFGPFIITNKHLFRRNNGTLVVQSLHGVFKVKDTTTLQQHLVDGRDMIIIRMPKDFPPFPQKLKFREPQREERICLVTTNFQTKSMSSMVSDTSCTFPSGDGIFWKHWIQTKDGQCGSPLVSTRDGFIVGIHSASNFTNTNNYFTSVPKVFMELLTNQEAQQWVSGWRLNADSVLWGGHKVFMVKPEEPFQPVKEATQL [N186V],0.0669,0.0664,0.0719,0.059,0.0774,,0.064,0.065,,,,,0.0875,0.0781,,,
MGESLFKGPRDYNPISSSICHLTNESDGHTTSLYGIGFGPFIITNKHLFRRNNGTLVVQSLHGVFKVKDTTTLQQHLVDGRDMIIIRMPKDFPPFEQKLKFREPQREERICLVTTNFQTKSMSSMVSDTSCTFPSGDGIFWKHWIQTKDGQCGSPLVSTRDGFIVGIHSASNFTNTNNYFTSVPKNFMELLTNQEAQQWVSGWRLNADSVLWGGHKVFMVKPEEPFQPVKEATQL [P96E],,0.0589,0.107,0.0448,,,0.0671,0.0658,0.0664,0.0412,0.0725,,,0.0876,,0.087,
MGESLFKGPRDYNPISSSICHLTNESDGHTTSLYGIGFGPFIITNKHLFRRNNGTLVVQSLHGVFKVKDTTTLQQHLVDGRDMIIIRMPKDFPPFPQKLKFREPQREERICLVTTNFQTKSMSSMVSDTSCTFPSGDGIFWKHWIQTKDGQCGSPLVSTRDGFIVGIHSASNFTNTNNYFTSVPKNFMELLTNQEAQQWVSGWRLNMDSVLWGGHKVFMVKPEEPFQPVKEATQL [A207M],0.0465,,0.0785,0.0729,0.0605,0.0679,0.0571,,,,0.0649,,,,,,
MGESLFKGPRDYNPISSSICHLTNESDGHTTSLYGIGFGPFIITNKHLFRRNNGTLVVQSLHGVFKVKDTTTLQQHLVDGRDMIIIRMPKDFPPFPQKLKFREPQREERICLVTTNFQTKSMSSMVSDTSCTFPSGDGIFWKHWIQTKDGQCGSPLVSTRDGFIVGIHSASNFTNTNNYFTSVPKNFMELLTNQEAQQWVSGWRLNCDSVLWGGHKVFMVKPEEPFQPVKEATQL [A207C],0.0078,,0.0771,,0.0591,,,0.0398,,0.0679,0.0589,0.0622,0.0784,,,0.0058,0.0603
MGESLFKGPRDYNPISSSICHLTNESDGHTTSLYGIGFGPFIITNKHLFRRNNGTLVVQSLHGVFKVKDTTTLQQHLVDGRDMIIIRMPKDFPPFPQKLKFREPQREERICLVTTNFQTKSMSSMVSDTSCTFPSGDGIFWKHWIQTKDGQCGSPLVSTRDGFIVGIHSASNFTNTNNYFTSVPKNFMELLTNQEAQQWVSGWRLNADSVLEGGHKVFMVKPEEPFQPVKEATQL [W212E],0.0569,0.0686,0.0655,0.0327,0.055,0.0684,0.0644,0.0559,0.0565,,,0.0629,0.0574,0.0117,0,0.0561,
